Test results: paper PMC4336329 (PLoS ONE, 2015)
Screen size: about 310,000 compounds; about 2,200 (0.71%) showed an effect of 50% or more. The effect is printed as a negative number. Some of the results follow.

target: human ether-à-go-go-related gene (hERG) potassium channel (human, UniProt Q12809); assay: primary screen, population patch clamp on CHO cells stably expressing hERG
Sequence (Q12809 whole entry, looked up): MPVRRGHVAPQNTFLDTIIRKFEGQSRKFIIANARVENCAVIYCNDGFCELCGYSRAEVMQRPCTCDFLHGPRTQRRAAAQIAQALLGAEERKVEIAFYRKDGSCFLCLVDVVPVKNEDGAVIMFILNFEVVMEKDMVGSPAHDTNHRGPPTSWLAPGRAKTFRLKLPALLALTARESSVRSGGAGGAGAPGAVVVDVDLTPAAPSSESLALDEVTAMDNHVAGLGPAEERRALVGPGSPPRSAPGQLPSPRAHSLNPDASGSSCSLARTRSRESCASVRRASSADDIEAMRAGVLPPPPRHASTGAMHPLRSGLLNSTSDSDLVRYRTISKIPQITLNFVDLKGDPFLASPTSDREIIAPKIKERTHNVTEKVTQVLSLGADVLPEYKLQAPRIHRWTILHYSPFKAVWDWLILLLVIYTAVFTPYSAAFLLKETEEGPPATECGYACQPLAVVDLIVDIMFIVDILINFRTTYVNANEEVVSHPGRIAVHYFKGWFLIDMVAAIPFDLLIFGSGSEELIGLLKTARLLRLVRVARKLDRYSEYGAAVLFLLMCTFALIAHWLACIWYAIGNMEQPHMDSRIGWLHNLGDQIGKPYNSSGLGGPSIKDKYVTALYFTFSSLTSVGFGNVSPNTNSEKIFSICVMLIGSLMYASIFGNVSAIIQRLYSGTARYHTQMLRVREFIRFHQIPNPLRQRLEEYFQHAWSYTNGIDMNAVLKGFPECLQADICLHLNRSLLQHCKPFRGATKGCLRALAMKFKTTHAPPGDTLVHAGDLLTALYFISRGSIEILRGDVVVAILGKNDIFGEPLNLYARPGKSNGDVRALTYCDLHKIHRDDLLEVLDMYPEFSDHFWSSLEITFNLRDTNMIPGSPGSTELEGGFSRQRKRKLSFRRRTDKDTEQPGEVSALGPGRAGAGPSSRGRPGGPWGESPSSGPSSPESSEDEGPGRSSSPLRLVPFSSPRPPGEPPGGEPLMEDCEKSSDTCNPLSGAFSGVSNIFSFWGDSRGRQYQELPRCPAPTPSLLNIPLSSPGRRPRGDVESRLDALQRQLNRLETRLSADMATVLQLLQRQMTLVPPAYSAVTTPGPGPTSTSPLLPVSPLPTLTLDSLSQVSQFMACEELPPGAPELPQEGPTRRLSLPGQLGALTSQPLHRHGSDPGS

SMILES	hERG current change (%, negative = inhibition) at 1uM [%]
O=C(CSc1n[nH]c(-c2ccccc2)n1)NCc1cccc(C(=O)O)c1	14.2
O=c1c2c3c(sc2nc2n1CCC2)CCCC3	10.9
CCOC(=O)c1c(N2C(=O)CC(Sc3ccccc3C(=O)O)C2=O)sc(C)c1C (centres unmarked)	13.6
Cc1ccc(-c2cn3cccnc3n2)cc1	13.4
NCCCCCc1cn([C@@H](CCC(=O)O)C(=O)NCCCCCCCCCCC(=O)N2CCNCC2)nn1	15
CCOC(=O)N1CCN(C(=O)c2cnn3c(C(F)F)cc(-c4ccc(C)cc4)nc23)CC1	5.77
O=C(CSc1cn(CCNC(=O)c2cccs2)c2ccccc12)NCc1ccccc1	6.95
COc1cccc2cc(C(=O)N3CCC(C)CC3)c(=O)oc12	4.67
CN(CC(=O)Nc1ccccc1Sc1ccccc1)Cc1nc2ccccc2c(=O)[nH]1	2.6
O=c1cc(N2CCOCC2)cnn1-c1ccccc1	2.76
NS(=O)(=O)c1cnccc1Nc1cccc(Br)c1	10.6
COC(=O)c1cnn(-c2nc(OC)cc(OC)n2)c1C	5.94
O=C(c1ccc(OC2CCN(Cc3ccccc3OC(F)F)CC2)cc1)N1CCCC1	12.4
COc1cc(SC)ccc1C(=O)NCCc1ccccc1	10.2
O=C(CN(Cc1ccc(F)cc1)C(=O)c1csnn1)NCc1ccccc1	-3.73
CC1(C(=O)OCC(=O)Nc2nnc(-c3ccccc3)o2)CC1(Cl)Cl (centres unmarked)	11.8
CC1CCc2c(sc(/N=C/c3ccco3)c2C(N)=O)C1 (centres unmarked)	10.5
COc1ccc(Oc2ccc(/C=C/C(=O)c3ccc(O)cc3)cc2[N+](=O)[O-])cc1	9.3
CC(=O)CCc1c(C)nc2ccc(C)cc2c1Cl	4.06
CCCOc1cccc(C(=O)NCCNC(=O)c2ccc(C)nc2)c1	7.83
CCCCN1C(=O)C(=O)N(CC(=O)Nc2cc(Cl)ccc2OC)C1=O	2.33
CC1CCC(NS(=O)(=O)c2ccc(Cl)nc2)CC1 (centres unmarked)	-13.1

SMILES	hERG current change (%, negative = inhibition) at 1uM [%]
O=C(/C=C/c1cccc([N+](=O)[O-])c1)Nc1ccccc1N1CCOCC1	-4.79
COc1ccc(N=Cc2c(O)n(-c3ccc(OC)cc3)c(=O)c3ccccc23)cc1	24.2
COc1ccc(NC(=O)Cn2cccc2)c(OC)c1	-2.8
CCCCCCSc1cc(-c2nc3cc(C)ccn3c2NCCCC)ccc1OC.O=C(O)C(F)(F)F	5.08
CCOC(=O)CC1=C(C(=O)OCC)C(c2cccnc2)C(C#N)=C(N)O1 (centres unmarked)	10.8
Cc1cccc(N2CCN(C(=O)C3CCC(CNS(=O)(=O)c4cccs4)CC3)CC2)c1C (centres unmarked)	8.6
CC(C)(O)C(=O)NNC(=S)NCc1ccco1	-1.35
CCOC(=O)C(CC)n1nc(C)n2c(cc3sccc32)c1=O (centres unmarked)	1.07
C/C(=N\NC(=S)Nc1ccc(C)c(C)c1)c1ccc(N2CCOCC2)cc1	13.8
O=C(c1ccco1)N1CCN(Cc2cc(=O)c(OCc3ccccc3Cl)co2)CC1	-1.87
CC(C)CN(C)C(=O)CCc1nnc(Cc2ccc(-c3ccccc3)cc2)o1	6.96
COC(=O)[C@]1(C)N[C@H](c2ccc(-c3ccc(Cl)c(Cl)c3)c(OC)c2)[C@@H]2C(=O)N(C)C(=O)[C@@H]21.O=C(O)C(F)(F)F	1.78
CCNC(=O)/C(C#N)=C/c1c(N2CCN(Cc3ccc4c(c3)OCO4)CC2)nc2c(C)cccn2c1=O	2.78
Cc1csc2c(NCCCN3CCOCC3)ncnc12	12.8
COc1ccc2sc(NC(=O)c3ccco3)nc2c1	8.24
Cc1ccc(C)c(C(=O)COC(=O)c2ccc(Br)o2)c1	12.2
Cc1ccc(N(CC(=O)NCc2ccco2)C(=O)CCC(=O)Nc2nccs2)cc1C	13
CCCCCN(C(=O)CCC(=O)OCCOc1ccccc1)c1c(N)n(CCCC)c(=O)[nH]c1=O	17.8
Cc1ccc(OCCOC(=O)C2CCN(S(=O)(=O)c3ccc(C)c(C)c3)CC2)cc1	4.73
CCOC(=O)C1CCN(C(=O)C2(NC(=O)NC3CCCCC3)CCCCC2)CC1	16.4
Cc1noc(/C=C/N(C)C)c1S(=O)(=O)NC1CCCCC1	6.29
CC(C)(C)OC(=O)N1CCC[C@H]1c1nnc(SCc2c(Cl)cccc2Cl)o1	-6.71
